The other results are listed elsewhere or left out.

This experiment concerns T1, Caupolican (Caup) homeodomain DNA-binding domain.
T1 sequence: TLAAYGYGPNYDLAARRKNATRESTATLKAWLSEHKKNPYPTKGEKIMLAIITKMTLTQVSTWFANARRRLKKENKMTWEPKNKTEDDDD
The experiment in a line: PBM E-score (8-mer, recovered from the published 9-mer minima) (E-score (dimensionless, -0.5 to 0.5)); Drosophila protein; higher = stronger relative binding preference, active = 0.31 or more. The method in brief:
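Caup's homeodomain DNA-binding domain (residues 214-303) was produced by in vitro transcription and translation and applied at 100 nM to custom-designed protein binding microarrays. Each value is an enrichment score giving relative binding preference for a short DNA word; higher means stronger. Published 9-mer scores were the minimum of their two constituent 8-mer scores, and the 8-mer values were recovered from those minima. A cutoff of 0.31 marks candidate binding sequences.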
Regarding GTAGATAA, the “PBM E-score” value was inactive: 0.14.
As for CCGGCGGA, the figure is inactive: -0.235; as for CATCAGAG, inactive: -0.063; as for GCTTGAAC, inactive: 0.0708.
For the sequence AGCAATCC, the “PBM E-score” value was inactive: -0.0615.
Consider TACAAAGA, for which the “PBM E-score” value is inactive: 0.239.
Take CCGGACCG: the “PBM E-score” value was inactive: -0.239.
Regarding ACCGATAG, the “PBM E-score” value is inactive: -0.0563.
Regarding CAAGTGCC, the “PBM E-score” value was inactive: -0.052.
For GGGACACC, the “PBM E-score” value is inactive: -0.131.
In the case of ACGTTGTA, the “PBM E-score” value is inactive: 0.291.
Next, TACTGTGA: inactive: 0.101; ACTGGGCG: inactive: -0.167; CTCGGGAC: inactive: -0.137.
As to AACTGAAG, the “PBM E-score” value was inactive: 0.0247.
In the case of AGACAGTC, the “PBM E-score” value was inactive: -0.0501.
As for AGCCAGAA, the figure is inactive: -0.135.
Next, CCTCGGAG: inactive: -0.18; GCAATGGC: inactive: -0.249.
In the case of TCAAGGCA, the “PBM E-score” value was inactive: -0.0611.
With AACGGATT, the “PBM E-score” value is not below 0.136.
For AGGTCCAA, the “PBM E-score” value was inactive: -0.0444.
On to CAGGATAA, for which the “PBM E-score” value was inactive: 0.0789.
On to CTCATTTA, for which the “PBM E-score” value was inactive: 0.049.
Turning to ATGCGGGG, the “PBM E-score” value was inactive: -0.184.
CCAGGAAC: the “PBM E-score” value was inactive: -0.0704.
As for CAATATTC, the “PBM E-score” value was inactive: 0.0827.
In the case of AACGCTAT, the “PBM E-score” value was inactive: 0.0403.
Turning to ACGATCCT, the “PBM E-score” value was inactive: 0.0589.
Consider CAGGGCCA, for which the “PBM E-score” value was inactive: -0.19.
CTGATTTC: the “PBM E-score” value is inactive: -0.0056.
For the sequence CACACCCG, the “PBM E-score” value is inactive: -0.104.
Turning to GCCAAAAC, the “PBM E-score” value is inactive: -0.0419.
As to TAATAAAA, the “PBM E-score” value was inactive: 0.189.
On to CTCAGCCA, for which the “PBM E-score” value is inactive: -0.149.
With CGAATGCG, the “PBM E-score” value was inactive: -0.0687.
As for TAGTCGCA, the “PBM E-score” value is inactive: 0.0299.
Take AAGAGGGC: the “PBM E-score” value was inactive: -0.133.
For the sequence ACTGTCCC, the “PBM E-score” value is inactive: -0.0217.
With CAAATTAG, the “PBM E-score” value was inactive: 0.165.
As for GGTAATGA, the “PBM E-score” value is inactive: 0.0999.
Next, AAGGATGG: inactive: 0.00046; GGGCTGCA: inactive: -0.163; ATCGACCC: inactive: -0.0225.
Regarding GGCTGTAC, the “PBM E-score” value is inactive: 0.108.
For the sequence ATCGTCGA, the “PBM E-score” value was inactive: -0.0683.
GCTAGAAC: the “PBM E-score” value was inactive: -0.0611.
On to CCTGGCCA, for which the “PBM E-score” value is inactive: -0.188.
In the case of AGGTCAAC, the “PBM E-score” value is inactive: 0.0375.
Take GTCTCTCA: the “PBM E-score” value is inactive: -0.0484.
As to ATAATACC, the “PBM E-score” value was inactive: 0.175.
Consider CCTGGAAC, for which the “PBM E-score” value is inactive: 0.0117.
In the case of CCAGATCA, the “PBM E-score” value is inactive: 0.0433.
With GGGTGCAC, the “PBM E-score” value was inactive: -0.171.
Turning to CGTCCGCC, the “PBM E-score” value is inactive: -0.227.
On to GATGCGGA, for which the “PBM E-score” value was inactive: -0.0221.
Take GAAGCGTC: the “PBM E-score” value is inactive: -0.161.
As to CCTCCTCG, the “PBM E-score” value is inactive: -0.165.
As to GAACGGGC, the “PBM E-score” value is inactive: -0.176.
As for AGTCTGCG, the figure is inactive: -0.0775; as for CAGGTACC, inactive: -0.0215.
Turning to TCTCCGCA, the “PBM E-score” value is inactive: -0.158.
For CACGCAGA, the “PBM E-score” value was inactive: 0.0614.
Regarding ACTACAAC, the “PBM E-score” value is active: 0.363.
Next, AAAAACGA: inactive: 0.0759.
Next, TATGGGAA: inactive: 0.0102; AGTGGGTA: inactive: -0.0663.
Next, GTTGGGGA: inactive: -0.0561; AGCATCCC: inactive: -0.166; CACATGGG: inactive: -0.0556.
Turning to AGACCGAT, the “PBM E-score” value was inactive: -0.00106.
As for ACAGGACC, the figure is inactive: -0.0967; as for CCTCCCGC, inactive: -0.221; as for AATGAATT, inactive: 0.121.
Next, GAAGAACC: inactive: -0.0916; GCTGACCA: inactive: -0.133; GCGAGACC: inactive: -0.104.
With ACTTGTTC, the “PBM E-score” value is active: 0.33.
As to AGGGATCC, the “PBM E-score” value is inactive: -0.212.
Next, ATGTCGCG: inactive: 0.218; CGAGAACG: inactive: -0.0728; GGTATCAA: inactive: 0.133.
As for AGCACGAG, the “PBM E-score” value is inactive: 0.0197.
Next, AAGAGAGT: inactive: -0.0869.
Turning to AACCAGCA, the “PBM E-score” value was inactive: 0.0382.
As for CCACAACC, the figure is inactive: 0.0376.
With CTAGAGCC, the “PBM E-score” value was inactive: -0.095.
As for CGGAAAAG, the figure is inactive: -0.0486; as for AACCTTTC, inactive: -0.0507.
Next, ATTGTCGG: inactive: 0.0859; ATTTTTGC: inactive: 0.07; GCGTGAGA: inactive: -0.142.
Regarding CCACTCAC, the “PBM E-score” value was inactive: -0.0749.
Next, GACCGCGA: inactive: -0.252.
CATCCTGC: the “PBM E-score” value was inactive: -0.0253.
Regarding GCGATTAC, the “PBM E-score” value was inactive: 0.0231.
On to GGTACAGA, for which the “PBM E-score” value was inactive: 0.152.
CAAGATAG: the “PBM E-score” value was inactive: 0.0618.
On to CACTCTCC, for which the “PBM E-score” value was inactive: -0.107.
For CCTTAATA, the “PBM E-score” value is inactive: 0.00761.
For CCCCCCCA, the “PBM E-score” value is inactive: -0.346.
In the case of ACTGGTGA, the “PBM E-score” value was inactive: -0.00248.
Take GATGCATA: the “PBM E-score” value was inactive: 0.0414.
CCAAGCGA: the “PBM E-score” value is inactive: -0.102.
As to ATGAGGAA, the “PBM E-score” value is not below 0.0774.
In the case of AAGCGCGG, the “PBM E-score” value is inactive: -0.0718.
Consider GCAAGCCC, for which the “PBM E-score” value is inactive: -0.142.
For the sequence ATAGCAAA, the “PBM E-score” value was inactive: 0.147.
Take CATGCGGC: the “PBM E-score” value is inactive: -0.0576.
Take GTATGAGA: the “PBM E-score” value is inactive: 0.0966.
For CATGGTCC, the “PBM E-score” value was inactive: -0.0724.

For the origin of these results see the supplement of paper PMC3724861.
